Article PMC9911399, “Two distinct binding modes provide the RNA-binding protein RbFox with extraordinary sequence specificity”
Where a chain is given by its changes, count along the chain named. The list shows a part of the results.

T1: RBFOX1 RRM RbFoxmut (Fox-RRM*) (Homo sapiens, UniProt Q9NWB1 109-208, R118D;E147R;N151S;E152T)
T1 sequence: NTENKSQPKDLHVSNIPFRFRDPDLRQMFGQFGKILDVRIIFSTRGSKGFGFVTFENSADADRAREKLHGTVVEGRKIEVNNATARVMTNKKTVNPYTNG

B1: GCGUUUU (DNA:RNA)
RNA: GGGAGACCGGAAUUCAGAUUGUCCGCGUUUUUUAAAUCCCGUCGUAGCCACCA
DNA 1: CAATCTGAATTCCGGTCTCCC
DNA 2: TGGTGGCTACGACGGGATT
B2: CCCACUU (DNA:RNA)
RNA: B1 RNA with G25C, G27C, U28A, U29C
DNA 1: CAATCTGAATTCCGGTCTCCC
DNA 2: TGGTGGCTACGACGGGATT
B3: AUGAGCC (DNA:RNA)
RNA: B1 RNA with G25A, C26U, U28A, U29G, U30C, U31C
DNA 1: CAATCTGAATTCCGGTCTCCC
DNA 2: TGGTGGCTACGACGGGATT
B4: CGACCCA (DNA:RNA)
RNA: GGGAGACCGGAAUUCAGAUUGUCCCGACCCAUUAAAUCCCGUCGUAGCCACCA
DNA 1: CAATCTGAATTCCGGTCTCCC
DNA 2: TGGTGGCTACGACGGGATT
B5: ACUGACU (DNA:RNA)
RNA: B1 RNA with G25A, G27U, U28G, U29A, U30C
DNA 1: CAATCTGAATTCCGGTCTCCC
DNA 2: TGGTGGCTACGACGGGATT
B6: UUUGAAC (DNA:RNA)
RNA: GGGAGACCGGAAUUCAGAUUGUCCUUUGAACUUAAAUCCCGUCGUAGCCACCA
DNA 1: CAATCTGAATTCCGGTCTCCC
DNA 2: TGGTGGCTACGACGGGATT
B7: UGAAAGC (DNA:RNA)
RNA: B6 RNA with U26G, U27A, G28A, A30G
DNA 1: CAATCTGAATTCCGGTCTCCC
DNA 2: TGGTGGCTACGACGGGATT
B8: AUACCAU (DNA:RNA)
RNA: B4 RNA with C25A, G26U, C30A, A31U
DNA 1: CAATCTGAATTCCGGTCTCCC
DNA 2: TGGTGGCTACGACGGGATT
B9: GUAUAGA (DNA:RNA)
RNA: B4 RNA with C25G, G26U, C28U, C29A, C30G
DNA 1: CAATCTGAATTCCGGTCTCCC
DNA 2: TGGTGGCTACGACGGGATT
B10: AUGGUCG (DNA:RNA)
RNA: B1 RNA with G25A, C26U, U28G, U30C, U31G
DNA 1: CAATCTGAATTCCGGTCTCCC
DNA 2: TGGTGGCTACGACGGGATT
B11: UACGAUG (DNA:RNA)
RNA: B6 RNA with U26A, U27C, A30U, C31G
DNA 1: CAATCTGAATTCCGGTCTCCC
DNA 2: TGGTGGCTACGACGGGATT
B12: GCUUCAA (DNA:RNA)
RNA: B1 RNA with G27U, U29C, U30A, U31A
DNA 1: CAATCTGAATTCCGGTCTCCC
DNA 2: TGGTGGCTACGACGGGATT
B13: AAGGGUA (DNA:RNA)
RNA: B1 RNA with G25A, C26A, U28G, U29G, U31A
DNA 1: CAATCTGAATTCCGGTCTCCC
DNA 2: TGGTGGCTACGACGGGATT
B14: AGUUUCG (DNA:RNA)
RNA: B4 RNA with C25A, A27U, C28U, C29U, A31G
DNA 1: CAATCTGAATTCCGGTCTCCC
DNA 2: TGGTGGCTACGACGGGATT
B15: GCAGUUU (DNA:RNA)
RNA: B1 RNA with G27A, U28G
DNA 1: CAATCTGAATTCCGGTCTCCC
DNA 2: TGGTGGCTACGACGGGATT
B16: CCAGUAU (DNA:RNA)
RNA: B1 RNA with G25C, G27A, U28G, U30A
DNA 1: CAATCTGAATTCCGGTCTCCC
DNA 2: TGGTGGCTACGACGGGATT
B17: AUACCCA (DNA:RNA)
RNA: B4 RNA with C25A, G26U
DNA 1: CAATCTGAATTCCGGTCTCCC
DNA 2: TGGTGGCTACGACGGGATT
B18: AAGGGUU (DNA:RNA)
RNA: B1 RNA with G25A, C26A, U28G, U29G
DNA 1: CAATCTGAATTCCGGTCTCCC
DNA 2: TGGTGGCTACGACGGGATT
B19: CUUAACC (DNA:RNA)
RNA: B6 RNA with U25C, G28A, A30C
DNA 1: CAATCTGAATTCCGGTCTCCC
DNA 2: TGGTGGCTACGACGGGATT
B20: CGUCGUC (DNA:RNA)
RNA: B4 RNA with A27U, C29G, C30U, A31C
DNA 1: CAATCTGAATTCCGGTCTCCC
DNA 2: TGGTGGCTACGACGGGATT
B21: CUAGCAG (DNA:RNA)
RNA: B4 RNA with G26U, C28G, C30A, A31G
DNA 1: CAATCTGAATTCCGGTCTCCC
DNA 2: TGGTGGCTACGACGGGATT
B22: CUAUUCA (DNA:RNA)
RNA: B4 RNA with G26U, C28U, C29U
DNA 1: CAATCTGAATTCCGGTCTCCC
DNA 2: TGGTGGCTACGACGGGATT
B23: GCACUCG (DNA:RNA)
RNA: B4 RNA with C25G, G26C, C29U, A31G
DNA 1: CAATCTGAATTCCGGTCTCCC
DNA 2: TGGTGGCTACGACGGGATT
B24: ACGAUUU (DNA:RNA)
RNA: B1 RNA with G25A, U28A
DNA 1: CAATCTGAATTCCGGTCTCCC
DNA 2: TGGTGGCTACGACGGGATT
B25: AAGACAU (DNA:RNA)
RNA: B1 RNA with G25A, C26A, U28A, U29C, U30A
DNA 1: CAATCTGAATTCCGGTCTCCC
DNA 2: TGGTGGCTACGACGGGATT
B26: UGCAUGA (DNA:RNA)
RNA: B4 RNA with C25U, A27C, C28A, C29U, C30G
DNA 1: CAATCTGAATTCCGGTCTCCC
DNA 2: TGGTGGCTACGACGGGATT
B27: UCGGCUC (DNA:RNA)
RNA: B1 RNA with G25U, U28G, U29C, U31C
DNA 1: CAATCTGAATTCCGGTCTCCC
DNA 2: TGGTGGCTACGACGGGATT
B28: UGCUAAU (DNA:RNA)
RNA: B6 RNA with U26G, U27C, G28U, C31U
DNA 1: CAATCTGAATTCCGGTCTCCC
DNA 2: TGGTGGCTACGACGGGATT
B29: GCUUCGG (DNA:RNA)
RNA: B1 RNA with G27U, U29C, U30G, U31G
DNA 1: CAATCTGAATTCCGGTCTCCC
DNA 2: TGGTGGCTACGACGGGATT
B30: AAAACGC (DNA:RNA)
RNA: B4 RNA with C25A, G26A, C28A, C30G, A31C
DNA 1: CAATCTGAATTCCGGTCTCCC
DNA 2: TGGTGGCTACGACGGGATT
B31: ACGCCAC (DNA:RNA)
RNA: B4 RNA with C25A, G26C, A27G, C30A, A31C
DNA 1: CAATCTGAATTCCGGTCTCCC
DNA 2: TGGTGGCTACGACGGGATT

What follows are binders tested against T1, RBFOX1 RRM RbFoxmut (Fox-RRM*) (assay: EMSA; HiTS-Eq, 1 nM pool, 10 min; buffer printed only for the single-RNA assays: 10 mM Tris pH 7.5, 150 mM NaCl, 3.4 mM EDTA, 0.001% NP-40, 30 C). Conditions: tags: His6 N-terminal (pET28a); label: 5' 32P.
In short: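 Purified wild-type or mutant RbFox RRM at increasing concentrations was equilibrated with 1 nM of 5′-radiolabelled RNA carrying 7 randomized nucleotides for 10 min in 50 µL. Unbound RNA was separated by 8% native PAGE and sequenced. Relative association constants came from read-count changes of each RNA species compared with the control reaction, normalised to the cognate motif.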

Binder | binding signal
B1 | 0.0773 KA relative to UGCAUGU
B2 | 0.0801 KA relative to UGCAUGU
B3 | 0.186 KA relative to UGCAUGU
B4 | 0.0982 KA relative to UGCAUGU
B5 | 0.0912 KA relative to UGCAUGU
B6 | 0.0705 KA relative to UGCAUGU
B7 | 0.0716 KA relative to UGCAUGU
B8 | 0.092 KA relative to UGCAUGU
B9 | 0.12 KA relative to UGCAUGU
B10 | 0.213 KA relative to UGCAUGU
B11 | 0.0695 KA relative to UGCAUGU
B12 | 0.0916 KA relative to UGCAUGU
B13 | 0.15 KA relative to UGCAUGU
B14 | 0.139 KA relative to UGCAUGU
B15 | 0.0614 KA relative to UGCAUGU
B16 | 0.108 KA relative to UGCAUGU

Binder | binding signal
B17 | 0.094 KA relative to UGCAUGU
B18 | 0.0918 KA relative to UGCAUGU
B19 | 0.0602 KA relative to UGCAUGU
B20 | 0.186 KA relative to UGCAUGU
B21 | 0.0866 KA relative to UGCAUGU
B22 | 0.0905 KA relative to UGCAUGU
B23 | 0.0787 KA relative to UGCAUGU
B24 | 0.0913 KA relative to UGCAUGU
B25 | 0.0714 KA relative to UGCAUGU
B26 | 0.692 KA relative to UGCAUGU
B27 | 0.0985 KA relative to UGCAUGU
B28 | 0.0977 KA relative to UGCAUGU
B29 | 0.0897 KA relative to UGCAUGU
B30 | 0.0603 KA relative to UGCAUGU
B31 | 0.0804 KA relative to UGCAUGU
